From PubChem BioAssay AID540317 (National Center for Advancing Translational Sciences (NCATS), 2011)
The whole screen tested about 390,000 compounds, of which about 2,200 (0.56%) were called active. This list was built around the results that the source calls inconclusive (neither active nor inactive); the mix of calls is not that of the screen. Calls follow the shape of the dose curve; as a rule, active = well fitted inhibition curve with a large enough effect; inconclusive = small, poorly fitted or top-dose-only effect; inactive = no such curve, though single readings can be large or run the other way. Where the call is inconclusive, the potency comes from a doubtful curve fit.

Target: Chromobox protein homolog 1 (Homo sapiens) (UniProt P83916)
UniProt P83916, sequence (P83916 whole entry, looked up): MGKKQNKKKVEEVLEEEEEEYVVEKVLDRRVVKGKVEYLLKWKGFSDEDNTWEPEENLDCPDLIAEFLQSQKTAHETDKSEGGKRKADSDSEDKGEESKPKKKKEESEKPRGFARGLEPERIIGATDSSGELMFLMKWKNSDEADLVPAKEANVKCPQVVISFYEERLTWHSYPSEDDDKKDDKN
Experiment: HTS for Inhibitors of HP1-beta Chromodomain Interactions with Methylated Histone Tails; also: nearly all actives have a fitted effect of over 70% in size
Settings: AlphaScreen HP1-beta / biotin-H3K9me3 peptide binding; series mostly up to 114 µM; activity change, negative = inhibition: at the top concentration
Summary of the method: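 AlphaScreen: HP1-beta (50 nM) preformed 30 min with biotin-H3(1-18)K9me3 peptide (50 nM) in PBS pH 7.4, 0.01% Tween-20. Compound added for 30 min at RT, then streptavidin donor/nickel chelate acceptor beads (10 ug/mL) for 30 min.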
Potency is read from the fitted curve at half-maximal effect; tags tell the direction and shape of the fitted curve.

`CN(C)c1ccc(CN(Cc2ccco2)C(=O)c2ccc(C(C)(C)C)cc2)cc1` was tested. Which Potency did it give?
The Potency was inconclusive: 15.8 µM [inhibitor, full curve].

`CSc1nsc(SC)c1C(=O)O` was tested. Which “activity change, negative = inhibition” value did it give?
The value was inactive: 16.3%.

Which Potency does the source give for `O=C(Nc1ccc(C(=O)O)cc1)/C(=C\c1ccco1)NC(=O)c1ccc(Br)o1` here?
The Potency was inconclusive: 50.1 µM [inhibitor, partial curve, poor fit].

How did the Potency turn out when `O=[N+]([O-])c1ccccc1NCCNc1ncc(C(F)(F)F)cc1Cl` was run?
Its Potency is inconclusive: 17.8 µM [inhibitor, partial curve, poor fit].

For `O=C(CCN1C(=O)/C(=C\C=C\c2ccccc2)SC1=S)Nc1ccccc1C(=O)O`, which Potency is on record?
The Potency was inconclusive: 14.1 µM [inhibitor, full curve].

How did the “activity change, negative = inhibition” value turn out when `Cc1cc(C)n2nc(CC#N)c(C#N)c2n1` was run?
Its value is inactive: 6.1%.

For `CCN(CC)c1ccc(NS(=O)(=O)c2ccc3c(c2)oc(=O)n3C)c(C)c1`, which Potency is on record?
Its Potency is inconclusive: 35.5 µM [inhibitor, partial curve, poor fit].

With `COc1ccc2nc(/N=C/c3cccc(OC)c3O)sc2c1` as the molecule, how does the “activity change, negative = inhibition” value read?
The value was inactive: 14.7%.

`On1c(-c2ccccc2Cl)nc2ccccc21` was tested. Which “activity change, negative = inhibition” value did it give?
Its value is inactive: 21%.

With `O=C(C[n+]1ccc(-c2cc(C(=O)Nc3cccc(C(F)(F)F)c3)c3ccccc3n2)cc1)c1cccc([N+](=O)[O-])c1` as the molecule, how does the Potency read?
The Potency was inconclusive: 39.8 µM [inhibitor, partial curve].

How did the “activity change, negative = inhibition” value turn out when `COC(=O)c1ccc(N2CCCCC2)c(NS(=O)(=O)c2ccc(C)cc2)c1` was run?
The value was inactive: 31.8%.

For `Cn1cc(CN2CCN(CCO)CC2)c(-c2ccc(Oc3ccccc3)cc2)n1`, which “activity change, negative = inhibition” value is on record?
The value was inactive: 9.92%.

With `COc1ccc(-n2c(-c3ccc(C)cc3)cc3c2CC(C)(C)CC3=O)cc1Cl` as the molecule, how does the Potency read?
The Potency was inconclusive: 14.1 µM [inhibitor, full curve, poor fit].

With `Cc1cc2cc(CN(Cc3cccs3)C(=S)NCc3ccco3)c(=O)[nH]c2cc1C` as the molecule, how does the Potency read?
The Potency was inconclusive: 28.2 µM [inhibitor, single point].

How did the “activity change, negative = inhibition” value turn out when `CS(=O)(=O)Nc1ccc(C2=NN(C(=O)c3cccc(F)c3)C(c3cccs3)C2)cc1` (configuration not stated) was run?
Its value is inactive: 42.6%.

Which Potency does the source give for `COc1ccc2c(CC(=O)OCC(=O)Nc3cc(C)c(C)cc3[N+](=O)[O-])coc2c1` here?
Its Potency is inconclusive: 25.1 µM [inhibitor, single point].

With `COc1ccc(N2CCN(C(=O)c3ccc(CSc4ccccc4)cc3)CC2)cc1` as the molecule, how does the Potency read?
The Potency was inconclusive: 28.2 µM [inhibitor, partial curve, poor fit].

With `Cc1sc(NC(=O)CCC(=O)O)c(C(N)=O)c1-c1ccccc1` as the molecule, how does the Potency read?
Its Potency is inconclusive: 25.1 µM [inhibitor, single point].

`O=C(O)C1C2C=CC(O2)C1C(=O)Nc1ccc(S(=O)(=O)Nc2ccccc2)cc1` (configuration not stated) was tested. Which Potency did it give?
The Potency was inconclusive: 89.1 µM [inhibitor, partial curve, poor fit].

`COc1ccc(-c2nc3cc(C)ccn3c2NCc2ccc3c(c2)OCO3)cc1` was tested. Which Potency did it give?
Its Potency is inconclusive: 39.8 µM [inhibitor, partial curve].

Which Potency does the source give for `CC(C)N1CCN(c2ccc(OCC3COC(Cn4cncn4)(c4ccc(Cl)cc4Cl)O3)cc2)CC1` (configuration not stated) here?
Its Potency is inconclusive: 70.8 µM [inhibitor, partial curve].

With `COc1cc(/C=N/NC(=O)COc2c(C)cc([N+](=O)[O-])cc2C)ccc1OC(=O)c1ccccc1Br` as the molecule, how does the “activity change, negative = inhibition” value read?
The value was inactive: 17.3%.

How did the Potency turn out when `COc1ccc(CN2CCN(CCSc3ccc(C)cc3)CC2)c(OC)c1OC` was run?
The Potency was inconclusive: 15.8 µM [inhibitor, full curve, poor fit].

`COc1ccccc1N1CCN(C(=O)c2ccc3[nH]c4c(c3c2)CCCC4)CC1` was tested. Which Potency did it give?
The Potency was inconclusive: 50.1 µM [inhibitor, partial curve].

For `COc1cc([N+](=O)[O-])cc(/C=N/NC(=O)Cn2nccc2C)c1O`, which “activity change, negative = inhibition” value is on record?
Its value is inactive: -11.4%.

`Cc1ccc(N2CCN(c3ccc(NCc4nc5ccccc5n4C)cc3)CC2)cc1` was tested. Which Potency did it give?
The Potency was inconclusive: 28.2 µM [inhibitor, partial curve].

With `COc1ccc(CNC(=O)Cn2c(SCC(=O)Nc3ccc(OC)cc3)nc3ccccc32)cc1` as the molecule, how does the Potency read?
The Potency was inconclusive: 20 µM [inhibitor, single point].

Which Potency does the source give for `CC(CC(=O)Nc1ccc(C(N)=O)cc1)c1ccccc1` (configuration not stated) here?
The Potency was inconclusive: 39.8 µM [inhibitor, single point].

How did the Potency turn out when `CN(C)S(=O)(=O)N(CC(=O)NCCSCc1ccccc1)c1ccccc1` was run?
The Potency was inconclusive: 79.4 µM [inhibitor, single point].

With `CCN(CC(=O)Nc1ccccc1OC)CC(=O)Nc1c(Cl)ccc(C)c1Cl` as the molecule, how does the “activity change, negative = inhibition” value read?
Its value is inactive: 36.2%.

How did the Potency turn out when `CCOC(=O)c1c(C)n(-c2ccc(C)cc2)c2c(C(C(C)=O)C(=O)O)c(Br)c(O)c(O)c12` (configuration not stated) was run?
Its Potency is inconclusive: 79.4 µM [inhibitor, partial curve, poor fit].

`CCc1ccc(Sc2cc(C(=O)NCc3cccc(OC)c3)c3ccccc3n2)cc1` was tested. Which “activity change, negative = inhibition” value did it give?
Its value is inactive: 38.6%.

For `CCCc1cc(C(N)=O)c(NC(=O)C2CCCO2)s1` (configuration not stated), which “activity change, negative = inhibition” value is on record?
The value was inactive: -34.2%.

How did the Potency turn out when `Cc1ccccc1OCCn1c(=S)[nH]c2c(N)ncnc21` was run?
The Potency was inconclusive: 25.1 µM [inhibitor, full curve].

Which “activity change, negative = inhibition” value does the source give for `Cc1c(OCC(=O)NCC2CCC(C(=O)O)CC2)ccc2c(-c3ccccc3)cc(=O)oc12` (configuration not stated) here?
Its value is inactive: -1.79%.

For `CC1CCN(c2cc(N3CCOCC3)c(F)cc2[N+](=O)[O-])CC1`, which Potency is on record?
Its Potency is inconclusive: 17.8 µM [inhibitor, partial curve, poor fit].

With `COc1ccc(CCNC(=O)COC(=O)c2cc(S(=O)(=O)N3CCOCC3)ccc2C)cc1OC` as the molecule, how does the “activity change, negative = inhibition” value read?
Its value is inactive: 37.1%.

`Cc1cccc(C)c1Nc1c(-c2ccccc2F)nc2cccc(C)n12` was tested. Which Potency did it give?
The Potency was inconclusive: 35.5 µM [inhibitor, partial curve].

Which “activity change, negative = inhibition” value does the source give for `COc1ccc(-n2c(SCC(=O)Nc3cc(C)on3)nc3c([nH]c4ccccc43)c2=O)cc1OC` here?
The value was inactive: 7.64%.

Which Potency does the source give for `Cc1cc(C)c[n+](-c2[nH]c(=O)sc2/C=N/NC([S-])=Nc2ccccc2)c1` here?
Its Potency is inconclusive: 31.6 µM [inhibitor, partial curve].

For `Clc1ccc(-c2nc3cnccn3c2Nc2ccc3c(c2)OCO3)cc1`, which Potency is on record?
Its Potency is inconclusive: 50.1 µM [inhibitor, partial curve, poor fit].

`COc1ccc2occ(CC(=O)Nc3ccc(S(=O)(=O)Nc4nccc(C)n4)cc3)c2c1` was tested. Which “activity change, negative = inhibition” value did it give?
The value was inactive: 14.6%.
